Measurements as given in the supplement of paper PMC12217912.
This is one part of the list. Sequences were assembled here from the parent chain. Inactive controls read about 0.05.

B1: TEV protease; numbered along this chain (parent)
chain: MGESLFKGPRDYNPISSSICHLTNESDGHTTSLYGIGFGPFIITNKHLFRRNNGTLVVQSLHGVFKVKDTTTLQQHLVDGRDMIIIRMPKDFPPFPQKLKFREPQREERICLVTTNFQTKSMSSMVSDTSCTFPSGDGIFWKHWIQTKDGQCGSPLVSTRDGFIVGIHSASNFTNTNNYFTSVPKNFMELLTNQEAQQWVSGWRLNADSVLWGGHKVFMVKPEEPFQPVKEATQL

Variants of: B1
Assay: raw area under fraction-flipped curve 0-4 h after induction (AUC4h, not background-subtracted), DNA-recorder readout of cleavage of the substrate (dimensionless); higher = more cleavage of the substrate by the protease variant
Details: temperature: 34 °C; time window: 0-4 h after rhamnose induction
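Note: Bxb1 expression induced with 0.2% (w/v) L-rhamnose at OD600 near 0.5, cultures sampled hourly, flipped fraction per protease–substrate barcode pair counted by paired-end Illumina sequencing.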

Row | Variant | area with substrate ECLYFQS | area with substrate EDLYFQS | area with substrate EGLYFQS | area with substrate EILYFQS | area with substrate EMLYFQS | area with substrate EQLYFQS | area with substrate ERLYFQS | area with substrate ESLYFQS | area with substrate EVLYFQS | area with substrate EWLYFQS | area with substrate EELYFQS | area with substrate EFLYFQS | area with substrate EHLYFQS | area with substrate EKLYFQS | area with substrate ELLYFQS | area with substrate ETLYFQS | area with substrate EYLYFQS | area with substrate EPLYFQS
1 | Q151P | 0.0605 | 0.0584 | 0.116 | 0.0611 | 0.0557 | 0.0363 | 0.0575 | 0.0753 | 0.0487 | 0.0511 | – | – | – | – | – | – | – | –
2 | S154G | 0.0752 | 0.0806 | 0.0588 | 0.063 | – | 0.093 | 0.094 | 0.096 | – | – | 0.0926 | 0.0916 | 0.0851 | 0.0838 | 0.0866 | 0.0855 | 0.073 | –
3 | S154P | 0.0544 | – | – | – | 0.0643 | – | – | – | 0.0739 | – | – | – | 0.0623 | – | – | – | – | 0.045
4 | L156M | 0.0831 | 0.114 | 0.102 | 0.0964 | 0.091 | 0.122 | 0.0912 | 0.1 | 0.125 | – | 0.0929 | – | – | – | 0.093 | – | 0.1 | 0.105
5 | D161T | 0.0795 | 0.104 | 0.0954 | 0.0744 | 0.0916 | 0.104 | – | 0.0797 | 0.0047 | 0.0579 | 0.0857 | – | – | – | 0.0799 | – | 0.0812 | 0.0865
6 | F163L | 0.0958 | – | – | 0.0912 | – | 0.111 | 0.108 | – | 0.0733 | – | 0.137 | – | 0.084 | 0.103 | – | – | – | 0.12
7 | F173L | 0.135 | 0.211 | 0.0952 | 0.14 | 0.135 | – | 0.131 | 0.144 | 0.112 | – | 0.1 | – | 0.141 | – | 0.0874 | – | 0.101 | 0.116
8 | N175D | 0.0786 | – | – | 0.0577 | 0.0714 | 0.0647 | 0.0705 | 0.0701 | 0.0737 | 0.067 | 0.0665 | 0.0847 | – | 0.0683 | 0.0564 | – | 0.0662 | 0.0823
9 | N175P | 0.076 | 0.0759 | 0.073 | 0.0938 | 0.0662 | 0.0642 | – | 0.074 | – | 0.0488 | 0.062 | – | – | – | 0.0599 | – | – | –
10 | N175Y | 0.074 | 0.101 | – | 0.0624 | 0.064 | 0.0828 | 0.0692 | 0.0625 | 0.0678 | 0.0704 | 0.0656 | 0.062 | – | – | 0.0726 | 0.073 | – | 0.0999
11 | Y179L | 0.051 | – | 0.0625 | 0.0566 | – | 0.0597 | 0.0472 | 0.0565 | 0.0442 | – | – | 0.0527 | – | 0.0728 | 0.0585 | – | – | –
12 | T181A | 0.123 | 0.136 | 0.111 | 0.122 | 0.13 | 0.141 | 0.13 | 0.115 | – | 0.157 | – | – | 0.148 | 0.124 | – | 0.121 | – | 0.15
13 | T181Y | 0.0642 | – | 0.0588 | 0.045 | – | 0.102 | 0.0517 | 0.0529 | 0.0509 | 0.0701 | 0.0529 | 0.0714 | 0.0791 | 0.0457 | – | 0.044 | – | 0.0603
14 | V183E | 0.0605 | – | 0.0467 | 0.0615 | – | 0.0642 | 0.0521 | 0.0481 | – | 0.0445 | – | – | – | 0.0508 | 0.0306 | – | – | –
15 | V183F | 0.0959 | 0.106 | 0.0822 | 0.0985 | 0.116 | 0.136 | 0.101 | 0.111 | 0.0713 | 0.0984 | 0.127 | – | 0.116 | 0.101 | 0.0914 | – | 0.0929 | 0.115
